The list shows a part of the results. These are further read-outs of the screen, such as a control signal, another cell line or another target. No call is given for them. Most of these compounds were active or inconclusive in the main read-out, so they are no random draw. The note in brackets gives the kind of curve behind each potency; many fits are weak.
test: qHTS Assay for Lipid Storage Modulators (AID 1519); conditions: Drosophila S3 cells, BODIPY lipid droplet/cell ratio, laser cytometry; measured here: cell count channel max response; cells loaded with oleic acid
Summary of the method: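 Cells seeded at 5,000 per well were treated with compounds over a concentration series and loaded with oleic acid (400 uM, as added). Lipid droplet fluorescence (488 nm excitation, 500-530 nm channel) was read by laser-scanning cytometry and normalized to 20 uM Triacsin C.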
Tags describe the fitted curve by direction and shape.

SMILES | max response [%]
Cc1cccc(-c2cc(=O)c3cc(C)ccc3o2)c1 | 86.9
Cc1csc(-c2nc3ccccc3n2C)n1 | 93.5
COc1ccc(-c2cc(=O)c3ccccc3o2)cc1 | 28.8
N#Cc1cccc(-c2ccc3ncnc(NC4CCNCC4)c3c2)c1 | 34.3
FC(F)(F)c1ccccc1-c1cncnc1NCc1cccnc1 | 37.3
COc1cccc(-c2nc(NC3CC3)c3ccccc3n2)c1 | 12
COC1(C2=NCCN2)COc2ccccc2O1 (stereo not drawn) | -6.96
CCNc1ncc2nc(-c3ccccc3)c(=O)n(CCc3ccccc3)c2n1 | 25
COc1ccc(CNc2nc(-c3cccc(NS(C)(=O)=O)c3)nc3ccccc23)c(OC)c1 | 23.3
Cc1cccc(CNc2ccnc(-c3ccccc3Cl)n2)c1 | 24.5
COc1ccc(CNc2ncncc2-c2cccc(C#N)c2)c(OC)c1 | 29.4
COc1ccc(Oc2ncc3nc(-c4cc(F)cc(F)c4)c(=O)n(C4CC4)c3n2)cc1 | -1.96
c1cncc(-c2nc(-n3ccnc3)c3ccccc3n2)c1 | 27.6
c1nc(NC2CC2)c2cc(-c3ccoc3)ccc2n1 | 39.5
CNc1nc(-c2c(C)noc2C)nc2ccccc12 | 0.604
N#CCCn1c(=O)c(CCc2ccccc2)nc2cnc(OCc3ccccc3)nc21 | 19.5
COc1ccc(Oc2ncc3nc(-c4ccc(F)cc4)c(=O)n(C4CC4)c3n2)cc1 | 11.3
C[C@@H](CCc1ccc(O)cc1)NCCc1ccc(O)c(O)c1 | 20.7
C=CCN1CCc2cc(O)c(O)cc2[C@H](c2ccccc2)C1 | 50.3
CN(C)c1ncc2nc(-c3ccc(Cl)cc3)c(=O)n(C)c2n1 | 23

SMILES | max response [%]
COc1ncc2nc(-c3ccccc3)c(=O)n(Cc3cccs3)c2n1 | 9.18
O=c1c(-c2ccc(F)cc2)nc2cnc(N3CCOCC3)nc2n1CCc1ccccc1 | 16.9
c1csc(CNc2nc(-c3ccc4c(c3)OCO4)nc3ccccc23)c1 | 22.9
COc1ncc2nc(-c3ccc(Cl)cc3)c(=O)n(CCC#N)c2n1 | 34.2
CN(C)c1ncc2nc(CCc3ccccc3)c(=O)n(Cc3cccs3)c2n1 | 38
CS(=O)(=O)Nc1cccc(-c2cc(NCc3ccccc3)ncn2)c1 | 27.5
Cc1cnc(CNc2cc(-c3ccccc3C(F)(F)F)ncn2)cn1 | 37.9
COc1ccc2[nH]cc(CCNc3ncncc3-c3ccccc3C(F)(F)F)c2c1 | 18.5
CC1c2cccc(O)c2C(O)=C2C(=O)[C@]3(O)C(O)=C(C(N)=O)C(=O)C(N(C)C)C3C(O)C21 (stereo partly drawn) | 32.4
COc1cc(OC)c2c(=O)c(-c3ccccc3)coc2c1 | 23.8
COc1ccccc1CNc1ccnc(-c2cccnc2)n1 | 20.8
c1ccc(Nc2nc(-c3ccc4c(c3)OCO4)nc3ccccc23)cc1 | -4.42
COc1ncc2ncc(=O)n(Cc3ccc(F)cc3)c2n1 | 23.4
O=c1cnc2cnc(N3CCOCC3)nc2n1Cc1ccc(F)cc1 | 20.5
O=S(=O)(c1ccccc1)N1CCC2(CCCN(c3cccc(-c4ccccc4)c3)C2)CC1 | 30.6
COc1ccccc1-c1nc(NCCc2cnc[nH]2)c2ccccc2n1 | 34.7
COc1ccc2[nH]cc(CCNc3nc(-c4cccnc4)nc4ccccc34)c2c1 | 26.7
C=C1C(=O)C23C(O)C1CCC2[C@]12COC3(O)C(O)C1C(C)(C)CC[C@H]2O (stereo partly drawn) | -47.6
O=S(=O)(c1ccccc1)N1CCC[C@@]2(CCN(c3cccc(-c4ccccc4)c3)C2)C1 | 30.7

same assay, conditions: Drosophila S3 cells, BODIPY lipid droplet/cell ratio, laser cytometry; measured here: cell number channel AC50; cells loaded with oleic acid

SMILES | AC50
Cc1cccc(-c2cc(=O)c3cc(C)ccc3o2)c1 | 3160 nM [rising, full curve]
Cc1csc(-c2nc3ccccc3n2C)n1 | 2510 nM [rising, full curve]
COc1ccc(-c2cc(=O)c3ccccc3o2)cc1 | 11.2 nM [rising, full curve]
N#Cc1cccc(-c2ccc3ncnc(NC4CCNCC4)c3c2)c1 | 3980 nM [rising, partial curve, poor fit]
FC(F)(F)c1ccccc1-c1cncnc1NCc1cccnc1 | 501 nM [rising, full curve]
COc1cccc(-c2nc(NC3CC3)c3ccccc3n2)c1 | 44.7 nM [rising, full curve]
COC1(C2=NCCN2)COc2ccccc2O1 (stereo not drawn) | 3160 nM [falling, partial curve, poor fit]
CCNc1ncc2nc(-c3ccccc3)c(=O)n(CCc3ccccc3)c2n1 | 44.7 nM [rising, full curve, poor fit]
COc1ccc(CNc2nc(-c3cccc(NS(C)(=O)=O)c3)nc3ccccc23)c(OC)c1 | 141 nM [rising, full curve, poor fit]
Cc1cccc(CNc2ccnc(-c3ccccc3Cl)n2)c1 | 1120 nM [rising, partial curve, poor fit]
COc1ccc(CNc2ncncc2-c2cccc(C#N)c2)c(OC)c1 | 891 nM [rising, full curve, poor fit]
COc1ccc(Oc2ncc3nc(-c4cc(F)cc(F)c4)c(=O)n(C4CC4)c3n2)cc1 | 2000 nM [rising, partial curve]
c1cncc(-c2nc(-n3ccnc3)c3ccccc3n2)c1 | 708 nM [rising, full curve, poor fit]
c1nc(NC2CC2)c2cc(-c3ccoc3)ccc2n1 | 3550 nM [rising, full curve]
CNc1nc(-c2c(C)noc2C)nc2ccccc12 | 200 nM [rising, partial curve]
N#CCCn1c(=O)c(CCc2ccccc2)nc2cnc(OCc3ccccc3)nc21 | 1410 nM [rising, full curve]
COc1ccc(Oc2ncc3nc(-c4ccc(F)cc4)c(=O)n(C4CC4)c3n2)cc1 | 8910 nM [rising, single point]
C[C@@H](CCc1ccc(O)cc1)NCCc1ccc(O)c(O)c1 | 15800 nM [rising, single point]
C=CCN1CCc2cc(O)c(O)cc2[C@H](c2ccccc2)C1 | 25100 nM [rising, partial curve, poor fit]
CN(C)c1ncc2nc(-c3ccc(Cl)cc3)c(=O)n(C)c2n1 | 3980 nM [rising, full curve, poor fit]

SMILES | AC50
COc1ncc2nc(-c3ccccc3)c(=O)n(Cc3cccs3)c2n1 | 3550 nM [rising, partial curve]
O=c1c(-c2ccc(F)cc2)nc2cnc(N3CCOCC3)nc2n1CCc1ccccc1 | 1580 nM [rising, full curve, poor fit]
c1csc(CNc2nc(-c3ccc4c(c3)OCO4)nc3ccccc23)c1 | 141 nM [rising, full curve]
COc1ncc2nc(-c3ccc(Cl)cc3)c(=O)n(CCC#N)c2n1 | 50.1 nM [rising, full curve, poor fit]
CN(C)c1ncc2nc(CCc3ccccc3)c(=O)n(Cc3cccs3)c2n1 | 1410 nM [rising, full curve]
CS(=O)(=O)Nc1cccc(-c2cc(NCc3ccccc3)ncn2)c1 | 2510 nM [rising, partial curve]
Cc1cnc(CNc2cc(-c3ccccc3C(F)(F)F)ncn2)cn1 | 1410 nM [rising, full curve]
COc1ccc2[nH]cc(CCNc3ncncc3-c3ccccc3C(F)(F)F)c2c1 | 2510 nM [rising, partial curve]
CC1c2cccc(O)c2C(O)=C2C(=O)[C@]3(O)C(O)=C(C(N)=O)C(=O)C(N(C)C)C3C(O)C21 (stereo partly drawn) | 6310 nM [rising, partial curve, poor fit]
COc1cc(OC)c2c(=O)c(-c3ccccc3)coc2c1 | 3550 nM [rising, partial curve, poor fit]
COc1ccccc1CNc1ccnc(-c2cccnc2)n1 | 251 nM [rising, full curve, poor fit]
c1ccc(Nc2nc(-c3ccc4c(c3)OCO4)nc3ccccc23)cc1 | 22.4 nM [rising, full curve]
COc1ncc2ncc(=O)n(Cc3ccc(F)cc3)c2n1 | 5.62 nM [rising, full curve, poor fit]
O=c1cnc2cnc(N3CCOCC3)nc2n1Cc1ccc(F)cc1 | 1410 nM [rising, full curve, poor fit]
O=S(=O)(c1ccccc1)N1CCC2(CCCN(c3cccc(-c4ccccc4)c3)C2)CC1 | 112 nM [rising, full curve]
COc1ccccc1-c1nc(NCCc2cnc[nH]2)c2ccccc2n1 | 2820 nM [rising, full curve, poor fit]
COc1ccc2[nH]cc(CCNc3nc(-c4cccnc4)nc4ccccc34)c2c1 | 100 nM [rising, full curve, poor fit]
C=C1C(=O)C23C(O)C1CCC2[C@]12COC3(O)C(O)C1C(C)(C)CC[C@H]2O (stereo partly drawn) | 6310 nM [falling, partial curve]
O=S(=O)(c1ccccc1)N1CCC[C@@]2(CCN(c3cccc(-c4ccccc4)c3)C2)C1 | 35.5 nM [rising, full curve]

Source: PubChem BioAssay (NCATS)
